# Source: PubChem BioAssay AID602293 (National Center for Advancing Translational Sciences (NCATS), 2012)
# Among all 1,300 compounds or so, about 30 (2%) were called active. Roughly 10% stayed inconclusive and do not appear here. Calls come from the whole dose curve; as a rule, active = well fitted inhibition curve with a large enough effect; inconclusive = small, poorly fitted or top-dose-only effect; inactive = flat fitted curve, though single readings scatter. This is one part of the list.
# Assay: qHTS for antagonists of the Thyroid Stimulation Hormone Receptor: Hit Validation in HTRF Activity in a Luteinizing Hormone Receptor Cell Line
# Conditions: LHR-expressing cell line, cAMP HTRF, antagonist mode; series mostly up to 58 µM; activity change, negative = inhibition: at the top concentration
# Summary of the method: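 Counter-screen on LH receptor–transfected HEK 293 cells: 30 min compound exposure at room temperature in medium containing 100 uM RO 20-1724 phosphodiesterase inhibitor. Cellular cAMP read by competitive HTRF after lysis with d2-cAMP and anti-cAMP antibody (330 nm excitation; 615/660 nm emission).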
# % is set by controls: 0 for no effect and ±100 for the full control effect; potency is the fitted concentration of half-maximal effect.
SMILES,"activity change, negative = inhibition",Potency
O=S(=O)(Nc1ccc(-c2ccc(N3CCOCC3)nn2)cc1)c1cc(Cl)ccc1Cl,inactive: -1.92%,
COc1ccc(C(CC(=O)N2CCOCC2)c2c(OC)cc(OC)c3c(-c4ccccc4)cc(=O)oc23)cc1 (centres undefined),inactive: -2.67%,
Cc1cccc(NC(=O)C2C3CCC4C(CCC32)C4(Cl)Cl)c1 (centres undefined),inactive: -0.704%,
O=c1[nH]c(C2CCN(S(=O)(=O)c3cccc(Cl)c3)CC2)nc2c1nnn2Cc1ccccc1,inactive: 2.58%,
CC1=N/C(=C\c2ccc([N+](=O)[O-])cc2)C(=O)N1c1ccc(Cl)cc1,inactive: 3.22%,
Cc1ccc(-c2cnc(C3CC3)o2)cc1S(=O)(=O)Nc1ccccc1,inactive: -4.77%,
O=Cc1c[nH]c2ccc(C(=O)c3ccccc3)cc12,inactive: -1.03%,
CCN(C(=O)c1cc2c(=O)n3ccccc3nc2n1C)C1CCCCC1,inactive: 1.28%,
CC(=O)Nc1ccc(S(=O)(=O)Nc2c(NC3CCCCC3)c3ccccc3oc2=O)cc1,inactive: 2.93%,
N#C/C(=N/Nc1ccc(OC(F)(F)F)cc1)C(N)=S,inactive: -0.939%,
CCOC(=O)c1sc(NC(=O)c2cc(-c3ccccc3C)nc3ccccc23)c(C#N)c1C,inactive: -5.43%,
COc1ccccc1NC(=O)NNC(=O)CCN1CCOCC1,inactive: -0.59%,
CCOP(=O)(Cc1ccc(C(C)(C)CC(C)=O)o1)OCC,inactive: 0.366%,
CCCCNC(=O)CC1C(=O)N(Cc2ccccc2)C(C)c2nc3ccccc3n21 (centres undefined),inactive: 3.43%,
C=CS(=O)(=O)c1sc(Cl)c(N2CCOCC2)c1[N+](=O)[O-],inactive: 1.63%,
COC(CNC(=O)c1ccc(Cn2c(=S)[nH]c3cc4c(cc3c2=O)OCO4)cc1)OC,inactive: 0.428%,
CCS(=O)(=O)c1ccc(C(=O)Nc2ccccc2)c(Cl)c1Cl,inactive: -0.276%,
Cc1ccc(C)c(N2CCN(S(=O)(=O)c3ccc4c(c3)CC(C)N4C(=O)C3CC3)CC2)c1 (centres undefined),inactive: 2.17%,
COc1ccc(/C=N/NC(=O)c2ccoc2C)cc1COc1c(C)cccc1C,inactive: -7.58%,
N#Cc1ccc(C(=O)Nc2nc(-c3cccs3)c(C(=O)C(F)(F)F)s2)cc1,inactive: -4.4%,

SMILES,"activity change, negative = inhibition",Potency
O=c1[nH]nc(Cc2ccc(-c3cccc(Cl)c3)o2)c2ccccc12,inactive: 1.92%,
O=S1(=O)C=C(Sc2nc3cc(Cl)ccc3o2)c2ccccc21,inactive: -7.43%,
Cc1ccc(C)c(C(=O)OCC(=O)Nc2cccc(S(=O)(=O)N3CCCCC3)c2)c1,inactive: -0.887%,
CC(C)(C)OC(=O)N1CCC(CC2CC(c3cccc(Br)c3)=NO2)(C(=O)NCC2CCCCC2)CC1 (centres undefined),inactive: -1.05%,
Cc1ccccc1C(=O)Nc1nnc(SCC(=O)NC2CC2)s1,inactive: -0.682%,
COc1ccccc1NS(=O)(=O)c1ccc2oc(SCc3ccc(F)cc3)nc2c1,inactive: 0.681%,
O=C(Nc1ccc(Br)cc1)c1cccc(S(=O)(=O)Nc2cnc3ccccc3c2)c1,inactive: 0.767%,
O=C(Nc1ccccc1Cl)/C(Cl)=C(\Cl)S(=O)c1ccccc1 (centres undefined),inactive: -22.7%,
Cc1ccc2oc(C(=O)N3CCCCCC3)c(C)c2c1,inactive: 1.02%,
CCc1ccc(/C=C/C(=O)c2cc(Br)ccc(=O)c2O)cc1,inactive: 0.973%,
CCOC(=O)c1c(NC(=O)/C=C/C(=O)O)sc(C)c1-c1ccc(F)cc1,inactive: -1.43%,
O=c1c2ccccc2nnn1CSc1nnc(-c2cccs2)n1Cc1ccccc1,inactive: -2.09%,
Cc1[nH]c2ccccc2c1/C=C/c1cc[n+](C)cc1,inactive: -8.41%,
Cc1cc(=O)oc2ccc(OCc3ccccc3)cc12,inactive: 3.09%,
CCCn1nc([N+](=O)[O-])c(C(C#N)c2nc3ccccc3o2)c(Cl)c1=O (centres undefined),inactive: 1.84%,
C=CCNC(=O)c1ccc(NC(=O)C2=CSCCO2)cc1,inactive: -0.951%,
O=C(NC(Nc1nc2ccc([N+](=O)[O-])cc2s1)(C(F)(F)F)C(F)(F)F)c1cccnc1,inactive: -2.25%,
Clc1cc(Cl)c(OCc2nc(-c3ccccn3)no2)cc1Cl,inactive: 0.0616%,
CCCCOCCCNc1ncnc2c1[nH]c1ccccc12,inactive: -2.7%,
CN(C)c1ccc(NC(=S)c2ccc3ccccc3n2)cc1,inactive: 1.72%,

SMILES,"activity change, negative = inhibition",Potency
O=C(OCCc1cc2ccccc2c(=O)o1)c1ccccc1C(F)(F)F,inactive: -0.186%,
O=C(CSc1nnc(NC(=O)c2cccc(Br)c2)s1)NCC1CCCO1 (centres undefined),inactive: -1.19%,
Cc1nc2ccccc2n1CC(=O)N/N=C\C=C\c1ccccc1,inactive: 1.98%,
COc1cccc(N2CCN(c3ncnc4c3cnn4-c3ccc(C)cc3C)CC2)c1,,active: 33.8 µM
COC(=O)c1ccc(COc2cc(O)c3c(c2)OC(C)(C)CC3=O)cc1,inactive: -3.69%,
Cc1ccc2nc(-c3ccc(NC(=O)c4cccnc4)cc3)oc2c1,inactive: -8.92%,
O=C(c1ccc2c(c1)N(Cc1ccccc1)C(=O)c1ccccc1S2)N1CCCC1,inactive: 0.549%,
Cc1cc(NC(=O)c2ccccc2)c(Cl)cc1N,inactive: 1.15%,
COc1ccc(CCNC2=C(Cl)C(=O)N(CCc3ccccc3)C2=O)cc1OC,inactive: -9.23%,
C=CC[C@H](CC(=O)N(CCO)Cc1ccccc1)C(=O)N[C@H](COC(=O)[C@@H](CC=C)Cc1ccc(F)cc1)C(C)(C)C,inactive: -3.08%,
CCC1Sc2ccc(S(=O)(=O)Nc3ccc(OC)c(OC)c3)cc2NC1=O (centres undefined),inactive: -2.27%,
CN(C)c1ccc(N/C=C/C(=O)C(F)(F)F)cc1,inactive: -1.57%,
Cc1ccc2cccc(Oc3ncnc4scc(-c5ccccc5)c34)c2n1,inactive: -7.58%,
CC(=O)c1c(C)[nH]c(C(=O)COc2cc(C)ccc2C(C)C)c1C,inactive: -1.76%,
CCOc1ccccc1NC(=O)C(NCCc1ccc(OC)cc1)c1ccccc1 (centres undefined),inactive: -1.46%,
COc1ccc(C)cc1-n1nnnc1SCc1cc(=O)n2cc(C)ccc2n1,inactive: -3.61%,
CCN(Cc1ccccc1)c1ccc(/C=N/NC(=O)c2cccc(S(=O)(=O)N3CCOCC3)c2)cc1,inactive: -2.74%,
COc1ccc(C(=O)c2ccccc2)c2c(O)ccc(C(=O)c3ccccc3)c12,inactive: -5.33%,
Cc1nc2ccc(C(=O)Nc3ccc4nc[nH]c4c3)cc2[nH]1,inactive: 0.258%,
